Data from PubChem BioAssay AID493208 (National Center for Advancing Translational Sciences (NCATS), 2011).
Out of some 44,000 compounds screened, about 340 (0.77%) were called active. Inconclusive results (about 5%) are left out. The call rests on the fitted dose curve; in most records, active means well fitted inhibition curve with a large enough effect; inconclusive means small, poorly fitted or top-dose-only effect; inactive means flat fitted curve, though single readings scatter. This is one part of the list.

assay: Acumen qHTS Assay for Inhibitors of the mTORC1 Signaling Pathway in MEF (Tsc2-/-, p53-/-) Cells: Sytravon; details: phospho-rpS6 immunofluorescence/PI, 24 h; series mostly up to 38.3 µM; activity change, negative = inhibition: at the top concentration;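 further: plate controls were DMSO for no effect and rapamycin for full effect; nearly all actives have a fitted effect of over 50% in size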
Procedure, shortened: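 Tsc2-/-, p53-/- mouse embryonic fibroblasts (empty-vector line) exposed to compound 24 hrs at 37 C, fixed, immunostained for phospho-rpS6 and counterstained with propidium iodide. Acumen laser scanning gives % positive cells from Alexa 488/PI ratio, thresholded using 7.5 nM rapamycin; PI count gives viability.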

Activity change, negative = inhibition, inactive:
Cc1cc(C)c(Cn2c(=O)n(CCC(=O)NCCc3ccccc3)c(=O)c3ccccc32)c(C)c1 12.2%, CCOC(=O)Cn1c(=O)oc2cc(S(=O)(=O)N3CCN(c4cccc(Cl)c4)CC3)ccc21 -5.07%, CCOCCCn1c(SCC(=O)Nc2ccccc2CC)nc2ccccc2c1=O 3.75%, O=C(O)c1sc(Nc2ccccc2)nc1-c1ccccc1 -10.1%, Cc1ccc(NC(=O)c2cccc3c(=O)c4c([nH]c23)CCCC4)c(C)c1 0.128%, CCN(CC)c1ccc(C(=O)N2CCc3c([nH]c4ccccc34)C2c2ccc(F)cc2)cc1 (stereo unspecified) -0.74%, Cc1ccc(NC(=O)Nc2nnc(SCC(=O)N(C(C)C)C(C)C)s2)cc1 -0.466%, COc1cccc(CNC(=O)c2c(C)nn(-c3ccc(F)cc3)c2-n2cccc2)c1 -6.95%, CCOC(=O)c1sc2ccccc2c1S(=O)(=O)Nc1ccc(OC)c(Cl)c1 -2.53%, CCOc1ccc(NC(=O)Nc2nnc(N3CCCCC3C)s2)cc1 (stereo unspecified) -3.74%, O=C(COc1ccccc1F)Nc1nnc(SCc2cc(=O)n3ccccc3n2)s1 5.72%, Cc1ccccc1Cn1nnc2sc3c(c2c1=O)CCCC3 9.01%, CCOC(=O)c1c(NC(=O)Nc2ccc(F)cc2)sc(C(=O)N(C)C)c1C -1.29%, COc1ccc(CCNC(=O)c2ccc3c(c2)N(Cc2ccccc2Cl)C(=O)c2ccccc2S3)cc1OC 2.5%, Cn1cc(CCCC(=O)NCc2cccc(Br)c2)c2ccccc21 3.32%, CCc1nc2ccc(C(=O)NCc3ccccc3C)cc2nc1CC -1.5%, O=c1c(NCc2cccs2)nccn1-c1ccccc1 -3.99%, COc1ccc(-n2cc(-c3ccccc3)c3c(N4CCCC(C)C4)ncnc32)cc1 (stereo unspecified) 5.44%, COc1ccc(-c2cccc(NS(=O)(=O)c3cc(C(F)(F)F)ccc3Cl)c2)nn1 -1.98%, O=C(CS(=O)(=O)c1cccc2nsnc12)NCc1ccccc1Cl -6.03%, Cc1ccc(CN2c3ccccc3-c3nc(SCC(=O)NCc4ccccc4)ncc3S2(=O)=O)cc1 1.41%, COc1ccc(C(=O)NCCc2csc(-c3ccc(Cl)cc3)n2)cc1 2.58%, CCC(=O)C1=C(c2ccccc2)N(C(=O)CC)n2c(nnc2-c2ccccc2)S1 -8.43%, Cc1ccc(N(CC(=O)Nc2ccc(F)cc2F)S(=O)(=O)c2cccs2)cc1 4.18%, Cc1ccc(S(=O)(=O)NCCc2nnc3ccc(SCc4ccccc4F)nn23)cc1 -7.64%, CCCCCCc1cc2cc(-c3nnc(-c4cccc(Cl)c4)o3)c(=O)oc2cc1O -11.4%, Cc1ccc(NC(=O)c2oc3ccc(S(=O)(=O)N4CCCCC4)cc3c2C)c(C)c1 -21.1%, Cc1cc(C)c(NC(=O)c2c(C)oc3c2C2=NCCN2C=N3)c(C)c1 -13.8%, Cc1cc(C)c(NC(=O)CN2C(=O)C3(SCC(=O)N3c3ccc(F)cc3)c3ccccc32)c(C)c1 (stereo unspecified) -1.67%, Cc1cccc(N2CCN(C(=O)C(C)n3nc(C)n4c(cc5occc54)c3=O)CC2)c1C (stereo unspecified) -11%, CCN(CC)S(=O)(=O)c1ccc(-c2csc(=Nc3cccc(C(F)(F)F)c3)n2Cc2ccc3c(c2)OCO3)cc1 -7.59%, CCc1ccc(CNC(=O)Cn2nc(-c3ccc(Cl)cc3)ccc2=O)cc1 -0.0953%, COc1ccc(C2c3c(n(C)c4ccccc34)C(=O)N2CC(=O)Nc2ccc(C)cc2Cl)cc1 (stereo unspecified) -2.37%, CN(C)c1ccc(CNC(=O)C2CCN(S(=O)(=O)c3ccc4c(c3)oc(=O)n4C)CC2)cc1 -7.41%, COc1cccc(NC(=O)Cn2c(=O)n(Cc3ccc(C(=O)NCc4ccc5c(c4)OCO5)cc3)c(=O)c3ccccc32)c1 -12.4%, Cc1ccc(S(=O)(=O)N2CCCc3cc(NS(=O)(=O)c4ccc(F)cc4)ccc32)cc1 13.6%, CCC(Oc1ccc(F)cc1)C(=O)Nc1nc2c(s1)CCCC2 (stereo unspecified) -8.77%, CCc1ccc(-c2cc(C)no2)cc1S(=O)(=O)NCc1ccco1 7.38%, COc1ccc(C(=O)N2c3nc(-c4ccco4)nn3C3(CCCCC3)[C@@H]3CCCC[C@@H]32)cc1OC -2.86%, O=C(NC1CCCCC1)c1ccc(Cn2c(SCc3ccccc3)nc3cccnc32)cc1 -0.396%, Cc1cccc(C(=O)N2CCCCC2CCN2CCCCC2)c1 (stereo unspecified) -18.6%, O=C(Nc1ccc(F)cc1)c1oc2ccccc2c1NC(=O)C1CCCCC1 2.6%, Cc1ccc2nc(NC(=O)c3ccc(S(=O)(=O)N4CCCc5ccccc54)cc3)sc2c1 -1.26%, COCCCn1c(=O)c2sccc2n2c(CCCC(=O)Nc3ccc(F)c(F)c3)nnc12 -19.8%, O=C(C1CCCCC1)N(Cc1cccnc1)c1nc2c(F)cc(F)cc2s1 0.688%, COc1ccc(CNC(=O)CCC2N=C3c4ccccc4N=C(SCc4ccc(F)cc4)N3C2=O)cc1 (stereo unspecified) 1.36%, Nc1c(C(=O)Nc2cccc(F)c2)sc2nc(-c3cccs3)ccc12 -12.1%, Cc1ccccc1-c1nc2scc(CCNC(=O)C(=O)Nc3ccc(F)cc3F)n2n1 -1.63%, Cc1cc(C)nc(NS(=O)(=O)c2ccc(NC(=O)c3cc(=O)c4ccc(C)c(C)c4o3)cc2)n1 -7.44%, CN1CCN(C2(CNC(=O)c3ccc([N+](=O)[O-])cc3)CCCCC2)CC1 0.512%, Nc1c(C(=O)NCCc2ccccc2)nnn1CC(=O)Nc1ccc(Cl)cc1 -2.34%, CCCn1c(CCC(=O)Nc2cccc(C)c2C)nc2cccnc21 -16.5%, O=C(CSc1nc2c([nH]c3ccccc32)c(=O)n1-c1ccccc1)c1ccc(Cl)cc1 -1.07%, C=Cc1ccc(Cn2c(C(=O)O)c(CNCCc3ccccc3)c3ccc(C)cc32)cc1 -9.56%, Cc1ccccc1OCCCCn1c(C2CC(=O)N(c3ccccc3Cl)C2)nc2ccccc21 (stereo unspecified) 2.09%, CCOC(=O)C1CCCN(c2c(C(=O)c3ccc(C)cc3)cnc3ccc(OCC)cc23)C1 (stereo unspecified) -20.8%, COc1ccc(CC(=O)Nc2ccc3nc(Nc4cccc(Cl)c4)cc(C)c3c2)cc1 -10.1%, Cc1ccc(Nc2c(-c3ccc(N4CCOCC4)cc3)nc3c(C)cccn23)cc1 1.12%, COCCn1c(SCC(=O)Nc2cccc(C)c2C)nc2c(oc3ccccc32)c1=O -1.53%, COc1ccc(CCNC(=O)c2cc3c(-c4ccc(OC)c(OC)c4)nn(C)c3s2)cc1OC -8.49%, Cc1ccc(Cn2c(CO)cnc2SCc2cccc(F)c2)cc1 -0.898%, Cc1ccc(Cl)cc1N1CCN(C(=O)c2ccc(CS(=O)(=O)c3ccc(Br)cc3)o2)CC1 -10.5%, Cc1oc2ncn(C)c(=O)c2c1C(=O)N(Cc1ccccc1)C(C)C -5.6%, CCOC(=O)c1c(C)[nH]c(CCC(=O)NCc2cccc(OC)c2)c1C 1.04%, Cc1ccc(Cl)cc1N1CCN(C(=O)CCn2c(=O)c3cccn3c3cccnc32)CC1 -0.348%, CCc1ccccc1NC(=O)CSc1nc2ncccc2o1 -1.54%, Cc1oc2ccc(O)c(CN3CCCCC3C)c2c1C(=O)Nc1ccccc1 (stereo unspecified) -1.24%, Cc1cccc(CC(=O)NC2CC(=O)N(c3ccccc3)C2)c1 (stereo unspecified) -6.61%, O=C(CSc1nc(=O)n(CCN2CCOCC2)c2c1CCC2)Nc1cccc(Cl)c1 -3.08%, COc1ccc(C(CNC(=O)Cc2ccc(Cl)cc2)N2CCOCC2)cc1 (stereo unspecified) 1.96%, O=C(CC(c1cccs1)N1Cc2ccccc2C1=O)Nc1ccc(F)cc1F (stereo unspecified) -3.48%, COc1cc(NC(=O)CN2C(=O)C(c3ccc(Cl)cc3)=NC23CCCCC3)cc(OC)c1 -1.89%, Cc1ccc(C2=CC(c3ccc(Cl)cc3)n3nc(-c4ccc(C)cc4)nc3N2)cc1 (stereo unspecified) -8.83%, CC(C)c1ccc(C2c3c(oc4ccc(Cl)cc4c3=O)C(=O)N2CCCN2CCOCC2)cc1 (stereo unspecified) -0.921%, Cc1cc2c(cc3c(SCc4cccc(F)c4)nnc(C)n32)o1 -19.7%, Cc1cccc(C(=O)N2CCC(N3CCN(Cc4ccc(F)cc4)C(=O)C3=O)CC2)c1 0%, O=c1c2c3c(sc2n(Cc2ccccc2F)c(=O)n1-c1ccc(Cl)cc1)CCCC3 -25.2%, COC(=O)c1ccc(Cl)cc1NC(=O)NC(C)c1c(-n2cccc2)sc(C)c1C (stereo unspecified) -1.66%, COc1ccc(NC(=O)CCc2nc3cccnc3n2-c2ccccc2)cc1Cl -1.31%, CNC(=O)C1CCC(Cn2c(=O)c3sccc3n(CC(=O)N3CCC(C)CC3)c2=O)CC1 (stereo unspecified) -13.2%, Cc1ccc(-n2ncc(C(=O)NCc3ccco3)c2C2CCN(C(=O)OC(C)(C)C)CC2)cc1 -8.39%, COC(=O)c1cc(S(=O)(=O)NCC2CCN(Cc3cccc(F)c3)CC2)cn1C -3.86%, Cn1c(=O)c2c(-c3ccc(Cl)cc3)n(CCc3ccccc3)cc2n(C)c1=O -0.512%, Cc1ccc2nc(Cl)c3cc(C(=O)N4CCCCC4)sc3c2c1 2.27%, Cc1cc(C)c(Cn2c(=O)n(CCCC(=O)NCc3ccc4c(c3)OCO4)c(=O)c3sccc32)c(C)c1 -8.08%, Cn1nnc2c(NCc3c(F)cccc3F)ncnc21 -3.23%, COc1ccc(N(C(=O)Cn2nnc3ccccc32)C(C(=O)NCc2ccccc2)c2ccc(F)cc2)cc1 (stereo unspecified) 1.58%, COc1ccc(N2CCN(Cc3nc4c(c(=O)[nH]c(=O)n4C)n3Cc3ccccc3F)CC2)cc1 -3.49%, COc1ccc(CCNC(=O)c2cc(=O)c3cc(C)c(C)cc3o2)cc1OC 2.02%, Cn1c(=O)c2c(nc(SCC(=O)Nc3ccc(F)c(F)c3)n2Cc2ccccc2F)n(C)c1=O -24.2%, O=C(NCCc1ccc(Cl)cc1)C1CCN(S(=O)(=O)c2ccc3[nH]ccc3c2)CC1 0.225%, COc1ccc(CCNC(=O)C(=O)NCC(c2cccs2)S(=O)(=O)c2ccc(F)cc2)cc1 (stereo unspecified) -3.19%, O=C(COCc1cc(-c2ccc3c(c2)OCO3)on1)Nc1cc(Cl)ccc1O 1.12%, COc1ccc(-c2noc(CNC(=O)COc3cccc(C)c3C)n2)cc1 -1.25%, CCOC(=O)c1c(C)oc2nc(C)nc(NCCCN3CCN(c4cc(C)ccc4C)CC3)c12 -11.9%, CC(C)c1ccc(Nc2c(-c3ccccn3)nc3ccccn23)cc1 -18.7%
